In the supplement of paper PMC4967469:

Columns and labels:
Assay in all cases: Viability of human cancer cell lines after 72 h of drug (GDSC screen)
Thapsigargin = compound: C/C=C(/C)C(=O)O[C@H]1C(C)=C2[C@H]([C@@H]1OC(=O)CCCCCCC)[C@@](C)(OC(C)=O)C[C@H](OC(=O)CCC)[C@@]1(O)[C@H]2OC(=O)[C@@]1(C)O [Thapsigargin]; details: top dose 0.512 µM; top dose inferred
Description: (§1)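 Human cancer cell lines in 384-well plates, medium with 10% serum, drug for 72 h over a 256-fold dose range (nine 2-fold or five 4-fold steps up to the top dose). Adherent lines were fixed and stained with the nucleic acid dye Syto60, suspension lines read with resazurin; signal relative to control wells, capped at 0 and 100%. One two-parameter sigmoid per drug and line, fitted in a mixed model over all curves with the slope shared within a line.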

QL-X-138 = compound: C=CC(=O)Nc1cc(-n2c(=O)ccc3cnc4ccc(-c5cn[nH]c5)cc4c32)ccc1C [QL-X-138]; details: top dose 10.24 µM; top dose inferred
Description: as §1

GSK269962A = compound: CCn1c(-c2nonc2N)nc2cnc(Oc3cccc(NC(=O)c4ccc(OCCN5CCOCC5)cc4)c3)cc21 [GSK269962A]; details: top dose inferred
Description: as §1

MPS-1-IN-1 = compound: COc1cc(N2CCC(O)CC2)ccc1Nc1cc(Nc2ccccc2S(=O)(=O)C(C)C)c2cc[nH]c2n1 [MPS-1-IN-1]; details: top dose 20 µM; top dose inferred
Description: as §1

(5Z)-7-Oxozeaenol = compound: COc1cc(O)c2c(c1)/C=C/C[C@H](O)[C@H](O)C(=O)/C=C\C[C@H](C)OC2=O [(5Z)-7-Oxozeaenol]; details: top dose 10 µM; top dose inferred
Description: as §1

CP466722 = compound: COc1cc2ncnc(-n3nc(-c4ccccn4)nc3N)c2cc1OC [CP466722]; details: top dose 16 µM; top dose inferred
Description: as §1

Zibotentan = compound: COc1nc(C)cnc1NS(=O)(=O)c1cccnc1-c1ccc(-c2nnco2)cc1 [Zibotentan]; details: top dose 20 µM; top dose inferred
Description: as §1

ABT-888 = compound: C[C@]1(c2nc3c(C(N)=O)cccc3[nH]2)CCCN1 [ABT-888]; details: top dose 5 µM; top dose inferred
Description: as §1

ABT-869 = compound: Cc1ccc(F)c(NC(=O)Nc2ccc(-c3cccc4[nH]nc(N)c34)cc2)c1 [ABT-869]; details: top dose 1.024 µM; top dose inferred
Description: as §1

CHIR-99021 = compound: Cc1cnc(-c2cnc(NCCNc3ccc(C#N)cn3)nc2-c2ccc(Cl)cc2Cl)[nH]1 [CHIR-99021]
Description: as §1

Cytarabine = compound: Nc1ccn([C@@H]2O[C@H](CO)[C@@H](O)[C@@H]2O)c(=O)n1 [Cytarabine]; details: top dose 2 µM
Description: as §1

KU-55933 = compound: O=c1cc(-c2cccc3c2Sc2ccccc2S3)oc(N2CCOCC2)c1 [KU-55933]; details: top dose 10 µM
Description: as §1

[1] = top dose 5 µM, screen: GDSC drug entry 1192
[2] = top dose 2.56 µM, screen: GDSC drug entry 154
[3] = top dose 10 µM, screen: GDSC drug entry 1241, top dose inferred
[4] = top dose 2.5 µM, screen: GDSC drug entry 127

Cell Line	AUC (Thapsigargin)	IC50 (Thapsigargin) [µM]	AUC (QL-X-138)	IC50 (QL-X-138) [µM]	AUC (GSK269962A; [1])	IC50 (GSK269962A; [1]) [µM]	AUC (MPS-1-IN-1)	IC50 (MPS-1-IN-1) [µM]	AUC ((5Z)-7-Oxozeaenol)	IC50 ((5Z)-7-Oxozeaenol) [µM]	AUC (CP466722)	IC50 (CP466722) [µM]	AUC (Zibotentan)	IC50 (Zibotentan) [µM]	AUC (ABT-888)	IC50 (ABT-888) [µM]	AUC (ABT-869)	IC50 (ABT-869) [µM]	AUC (CHIR-99021; [2])	IC50 (CHIR-99021; [2]) [µM]	AUC (CHIR-99021; [3])	IC50 (CHIR-99021; [3]) [µM]	AUC (Cytarabine)	IC50 (Cytarabine) [µM]	AUC (KU-55933)	IC50 (KU-55933) [µM]	AUC (GSK269962A; [4])	IC50 (GSK269962A; [4]) [µM]
NCI-H1781 (lung adenocarcinoma, adherent)	0.392	0.0161	0.839	7.02	0.978	> 5	0.989	> 20	0.797	4.71	0.874	15.6	0.916	> 20	0.989	> 5	0.989	> 1.02	0.989	> 2.56	0.968	> 10	0.708	0.484	0.988	> 10	–	–
NCI-H1792 (lung adenocarcinoma, adherent)	0.173	0.00376	0.922	> 10.2	0.91	> 5	0.952	> 20	0.918	> 10	0.978	> 16	0.989	> 20	0.989	> 5	0.989	> 1.02	0.99	> 2.56	0.796	4.15	0.853	1.33	0.979	> 10	–	–
NCI-H1944 (lung adenocarcinoma, adherent)	0.353	0.0122	0.755	3.68	0.919	> 5	0.885	> 20	0.899	> 10	0.763	6.12	0.984	> 20	0.985	> 5	0.982	> 1.02	0.985	> 2.56	0.982	> 10	0.238	0.0205	0.962	> 10	–	–
NCI-H1993 (lung adenocarcinoma, adherent)	0.913	> 0.512	0.729	3.61	0.949	> 5	0.948	> 20	0.803	6.96	0.978	> 16	0.974	> 20	0.963	> 5	0.981	> 1.02	0.982	> 2.56	0.96	> 10	0.975	> 2	0.974	> 10	–	–
NCI-H2009 (lung adenocarcinoma, adherent)	0.197	0.00379	0.898	> 10.2	0.885	> 5	0.945	> 20	0.727	2.89	0.956	> 16	0.985	> 20	0.974	> 5	0.985	> 1.02	0.986	> 2.56	0.975	> 10	0.742	0.648	0.962	> 10	–	–
NCI-H2087 (lung adenocarcinoma, semi-adherent)	0.228	0.00479	0.768	4.12	0.984	> 5	0.927	> 20	0.788	4.77	0.766	6.34	0.985	> 20	0.985	> 5	0.975	> 1.02	0.983	> 2.56	0.974	> 10	0.92	> 2	0.98	> 10	–	–
NCI-H2110 (non-small cell lung carcinoma, adherent)	0.336	0.0111	0.648	1.66	0.962	> 5	0.734	5.93	0.934	> 10	0.851	12.7	0.98	> 20	0.976	> 5	0.985	> 1.02	0.986	> 2.56	0.985	> 10	0.646	0.32	0.928	> 10	–	–
NCI-H2172 (non-small cell lung carcinoma, adherent)	0.899	> 0.512	0.926	> 10.2	0.864	> 5	0.944	> 20	0.905	> 10	0.924	> 16	0.979	> 20	0.981	> 5	0.978	> 1.02	0.977	> 2.56	0.92	> 10	0.817	1.67	0.972	> 10	–	–
NCI-H2227 (small cell lung carcinoma, semi-adherent)	0.84	0.419	0.714	2.82	0.946	> 5	0.832	15.1	0.961	> 10	0.711	4.3	0.984	> 20	0.986	> 5	0.971	> 1.02	0.985	> 2.56	0.984	> 10	0.929	> 2	0.985	> 10	0.91	> 2.5

The IC50 comes from the fitted curve, where viability falls to half of the control; fits outside the tested doses are given as limits. The AUC spans the tested range (256-fold, ending at the top dose) of the same fit: 1 means no effect, lower means more sensitive. For some assays here: Any top dose called inferred was calculated from the reported fits. For some assays here: Drugs with an entry number were screened twice under separate entries, and the two screens often disagree.
